In PubChem BioAssay AID1508624 (National Center for Advancing Translational Sciences (NCATS), 2021):
About 120 (0.25%) of roughly 48,000 compounds were called active. Not shown: some 4% with an inconclusive outcome. The call rests on the fitted dose curve; in most records, active means well fitted activation curve with a large enough effect; inconclusive means small, poorly fitted or top-dose-only effect, or another doubt; inactive means no such curve, though single readings can be large or run the other way. The list shows a part of the results.

experiment: Primary qHTS for Identification of Small Molecule Activators of Huntingtin-Antisense Promoter Activity; settings: HEK293 HTT-AS promoter firefly luciferase reporter, 24 h; series mostly up to 57.5 µM; activity change, positive = activation: at the top concentration; further: nearly all actives have a fitted effect of over 55% in size
Summary of the method: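 HEK293 luciferase promoter-reporter cells (2,500/well) plated 24 h, then compounds added at up to 57.5 uM final for 24 h at 37 °C. Firefly luminescence by Dual-Glo, normalized to vehicle (0%) and zero RLU (-100%).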

Activity change, positive = activation, inactive:
Cc1ccccc1CN1C(=O)c2ccccc2Sc2ccc(C(=O)O)cc21 -16.2%
O=C(O)COCCN1CCN(C(c2ccccc2)c2ccc(Cl)cc2)CC1 (stereo not given)
Cc1ccc(CS(=O)Cc2ccc(C(=O)NCc3ccccc3Cl)o2)cc1 (stereo not given) -16.4%
Cc1ccc(NC(=O)C2CCCN(c3cnccn3)C2)cc1Cl (stereo not given) 3.11%
Nc1nnc(SCC(=O)Nc2cccc(F)c2)s1 -9.09%
O=S(=O)(c1cc(Br)c(Br)s1)N1CCN(c2ccccc2)CC1 -8.19%
COc1ccccc1C(=O)Nc1cccc(OCc2cc(=O)n3c(C)csc3n2)c1 -22.2%
CC(C)c1ccc(NC(=O)C2CCN(S(=O)(=O)c3ccc(Br)s3)CC2)cc1 -35%
Cc1ccc(S(=O)(=O)c2nnn3c2nc(NCc2ccccc2)c2sccc23)cc1 -40.6%
CSc1nn(Cc2ccccc2C)c(NC(C)=O)c1S(=O)(=O)c1ccc(C)cc1 -13.8%
COc1ccc(NC(=O)CCc2nc3c(C)nn(-c4ccc(C)cc4)c3n(C)c2=O)c(OC)c1 -6.29%
CCOC(=O)CCn1c(=O)c2cccn2c2cccnc21 -2.09%
CCOc1ccc(-c2c(C)nn3c(C)c(C(=O)Nc4cccc(Cl)c4C)cnc23)cc1OCC -4.78%
Cc1cc2cc(CCNS(=O)(=O)c3ccc(Br)cc3)c(=O)[nH]c2cc1C -18.6%
COCCN1Cc2cccc(C(=O)Nc3ccc(C(=O)OC)cc3)c2C1=O -1.08%
O=C(CCS(=O)(=O)c1nc(-c2cccs2)cc(C(F)(F)F)n1)Nc1ccc(Br)cc1 -53.3%
N[C@@H]1CONC1=O
Cc1ccc2nc(-c3ccsc3)c(Nc3ccc(C(C)C)cc3)n2c1 9.04%
COc1ccccc1C(=O)Nc1ccc2nc(SCC(=O)N3CCCC3)sc2c1 -4.37%
COCCNC(=O)CCCn1c(SCC(=O)c2ccc(F)cc2)nc2c(sc3ccccc32)c1=O 0.687%
CCCCCn1c(=O)[nH]c2cc(C(=O)N3CCN(c4cccc(Cl)c4)CC3)ccc2c1=O -25.5%
Cc1ccccc1NC(=O)c1cc2sccc2n1Cc1ccc(F)cc1 -22.1%
CN(c1ccccc1)S(=O)(=O)c1nnc(NC(=O)c2ccco2)s1 -1.28%
COc1ccc(OC)c(CNC(=O)c2cc(S(=O)(=O)N3CCC(C)CC3)cn2C)c1 -33.2%
O=C(NC1CCN(Cc2ccccc2)CC1)c1ccc(Cn2c(=O)c3ccccc3n(Cc3ccc(F)cc3)c2=O)cc1 -12.6%
Cc1cc(C)cc(Oc2nc3ccccn3c(=O)c2/C=C(\C#N)c2nc3ccccc3s2)c1 2.86% [at 11.5 µM, percent change from vehicle, -100% = no light]
Cc1ccccc1OCCSc1nc2ccc(NC(=O)c3cccs3)cc2s1 -30.2%
Cn1c(=O)cc(SCC(=O)N2CCN(c3ccccc3F)CC2)c2ccc(Cl)cc21 11.2%
COCCCNC(=O)CSc1nc2cc3c(cc2c(=O)n1CCCC(=O)NCc1ccc2c(c1)OCO2)OCO3 -13%
CCn1nc(-c2ccccc2)c(-c2ccccc2)c(C(=O)Nc2ccc(NC(C)=O)cc2)c1=O -1.94%
Cc1ccc(Cn2ccnc2SCC(=O)Nc2nnc(C)s2)cc1 -15.1%
COc1ccc(OC)c(NC(=O)Nc2c(C)n(C)n(-c3ccccc3)c2=O)c1 -9.85%
Cc1ccc(-c2csc(=Nc3ccccc3)n2Cc2ccc3c(c2)OCO3)cc1 9.8%
CCN(CC)S(=O)(=O)c1ccc2c(c1)nc(CN(C)C(=O)Nc1ccc(C)c(F)c1)n2C 5.71%
CCc1ccccc1NC(=O)CN1C(=O)CCSc2ccc(S(=O)(=O)N3CCCC3)cc21 -17.3%
O=C(OCC1CCCO1)c1ccc2c(c1)N(Cc1ccccc1)C(=O)c1ccccc1S2(=O)=O (stereo not given) -12.3%
O=[N+]([O-])c1cncn1CCN1CCOCC1 -2.78%
CCc1ccccc1NC(=O)C(C)n1c(=O)cc(C)c2c(C)nn(-c3ccccc3)c21 (stereo not given) -6.15%
COC(=O)c1ccc(CSc2nc3c([nH]c4ccccc43)c(=O)n2-c2cccc(Cl)c2)o1 -22.9%
CCOC(=O)C1CCCN(C(=O)Cn2ncc3c4ccccc4n(Cc4ccccc4)c3c2=O)C1 (stereo not given) -24.8%
COc1ccccc1NC(=O)c1cc2c(C)nn(-c3ccccc3)c2s1 1.67% [at 11.5 µM, percent change from vehicle, -100% = no light]
COc1ccc(N2CCN(C(=O)COCc3cc(-c4ccc5c(c4)OCO5)on3)CC2)cc1 -1.7%
COc1ccc(NC(=O)c2sc3nc(C(F)(F)F)cc(C)c3c2N)cc1OC -13.3%
Cc1ccc(NC(=O)c2nc(S(C)(=O)=O)ncc2N(Cc2ccco2)Cc2cccs2)cc1C -20.7%
CCO/C([O-])=N/c1c[n+](N2CCOCC2)no1 -0.231%
Cc1cccc(NC(=O)CCNS(=O)(=O)c2ccc3c(c2)CCN3C(=O)C2CC2)c1 -2.73%
CCOC(=O)C1CCN(C(c2ccc(C)cc2)c2c(O)cc(C)n(CCOC)c2=O)CC1 (stereo not given) 2.06%
CCOc1ccc(-c2cc(CCCC(=O)NCCc3cc(OC)c(OC)c(OC)c3)no2)cc1 -78.8%
COc1ccc(CCNC(=O)CCCn2nc(C)c3sc4ccccc4c3c2=O)c(OC)c1 -10.5%
CCOc1ccc(NC(=O)Cn2c(=O)n(CCCS(=O)(=O)C3CCCCC3)c(=O)c3ccccc32)cc1 -3.4%
COC(=O)c1c(C)oc2ccc(N(C(=O)c3ccncc3)S(=O)(=O)c3cc(C)ccc3C)cc12 -38.6%
Cc1ccc(NC(=O)C2CCC(CNS(=O)(=O)c3cccc4nsnc34)CC2)c(Cl)c1 (stereo not given) 10.6% [at 11.5 µM, percent change from vehicle, -100% = no light]
COc1ccc(N2CCN(C(=O)C3CCN(S(=O)(=O)c4cn(C)cn4)CC3)CC2)cc1 2.66%
Cc1cccc(N(C)C(=O)Cc2c(C(=O)O)[nH]c3ccccc23)c1 -11.1%
Cc1ccc(-n2ncc3c(N4CCC(Cc5ccccc5)CC4)ncnc32)cc1C 10.7%
Cc1ccc(OC(=O)CSc2nnc(-c3ccc4c(c3)OCO4)o2)cc1 -24.6%
COCCCn1c(-c2ccc(S(=O)(=O)N3CCOCC3)cc2)csc1=Nc1ccccc1 -68.5%
CC1(c2ccc(Cl)cc2)CC(C)(C)N(C(=O)c2cccc(F)c2)c2ccccc21 (stereo not given) -32.4%
COc1ccc(CNC(=O)c2cc3sccc3n2Cc2ccc(C)cc2)cc1 13.1%
O=C(Cc1ccccc1)Nc1sc2c(c1C(=O)Nc1ccc(Br)cc1)CCCC2 -26.4%
Cc1ccc(NC(=O)C2CCN(c3nc(-c4ccc(C(C)C)cc4)no3)CC2)c(Cl)c1 -90%
Cc1ccc(C(=O)Oc2cc(-c3ccc4c(c3)OCO4)cc(=O)c3c(C)oc(C)c23)cc1 -15.3%
Cc1ccc(C(=O)NC2(C(F)(F)F)N=C(c3ccccc3)N(Cc3ccccc3)C2=O)cc1 (stereo not given) -22.9%
CCc1c(C)[nH]c2c1C(=O)C(CN1CCOCC1)CC2 (stereo not given) -7.98%
CC(=O)c1ccc(NS(=O)(=O)c2ccc(-n3cccn3)cc2)cc1 -34.8%
CCOc1ccc(CNC(=O)c2cc(-c3ccc(Cl)s3)nc3ccccc23)cc1 -16%
COc1ccccc1NC(=O)Cn1c(=O)n(CC(=O)NCc2ccccc2Cl)c(=O)c2sccc21 15.2%
COc1ccc(C(=O)Oc2c(Sc3ccc(C)cc3)c(C)nn2C(C)(C)C)cc1OC -34.6%
O=C(c1ccc2c(c1)N(Cc1ccc(Cl)cc1)C(=O)c1ccccc1S2=O)N1CCCCC1 (stereo not given) -31.6%
CCN(CC)CCNC(=O)c1cn(CC)c2ccc(S(=O)(=O)N(C)C3CCCCC3)cc2c1=O -6.15%
CCC(C(=O)NC1CCCCC1)n1c(SCc2cccc(C)c2)nc2ccncc21 (stereo not given) -13.3%
COCc1c(Br)c(C)nc2sc3c(=O)n(-c4cccc(Br)c4)nnc3c12 -10.4%
N#Cc1ccccc1CSc1nnc2ccc3ccccc3n12 17.5%
CC(NC(=O)c1ccco1)c1nc(-c2ccccc2)no1 (stereo not given) -11.8%
COc1cc(C(=O)NCCCCCC(=O)O)cc(OC)c1OC -5.57%
Cc1cc(=O)n(CC(=O)NC(C)c2ccccc2)c2c1c(C)nn2-c1cccc(F)c1 (stereo not given) -18.1%
Nc1ccc([N+](=O)[O-])cc1O -9.76% [at 116 µM, percent change from vehicle, -100% = no light]
CCN1C(=O)c2ccccc2S(=O)(=O)c2ccc(C(=O)NCc3ccc(OC)cc3)cc21 -15.9%
COC(=O)c1cc(NC(=O)c2sc3ccccc3c2Cl)cc(C(=O)OC)c1 -3.75%
Cc1cccc(N2CCN(c3ncnc4c3nc3n4CCCCC3)CC2C)c1 (stereo not given) -92.6%
COC(=O)c1cc2occc2n1CC(=O)Nc1ccc(C)cc1Cl 14.9%
N[C@@H](CCC(=O)N[C@@H](CS)C(=O)NCC(=O)O)C(=O)O -5.21% [at 25.1 µM, percent change from vehicle, -100% = no light]
COc1ccc(-c2nn(-c3ccc(C)cc3)c3c2cnc2ccc(C)cc23)cc1OC -19.4%
CCCN1CCN(CCCNC(=O)C(CC)n2nc(C)n3c(cc4occc43)c2=O)CC1 (stereo not given) -6.13%
CC1=C(C(=O)O)N2C(=O)[C@@H](NC(=O)[C@H](N)C3=CCC=CC3)[C@H]2SC1
COc1cccc(NC(=O)c2cc3c(-c4ccc(Cl)cc4)nn(C)c3s2)c1 -20%
O=C(NCC(c1cccnc1)N1CCN(Cc2ccccc2)CC1)C(=O)Nc1cccc(Cl)c1 (stereo not given) -14.9%
O=C(O)c1cccc(-n2cnc3cccnc32)c1 -3.14%
CCc1nnc(NC(=O)c2nc(SC)ncc2Cl)s1 -11.7%
CCSc1oc(-c2cccs2)nc1S(=O)(=O)c1ccc(Br)cc1 -5.85%
NC(=O)CSc1nc2c(oc3ccccc32)c(=O)n1Cc1ccccc1 -5.04%
Cc1ccccc1C(=O)Nc1c(C(=O)Nc2cccc(F)c2)oc2ccccc12 -15.3%
O=C(NCc1ccc2c(c1)OCO2)c1ccc2c(c1)N(Cc1ccccc1F)C(=O)c1ccccc1S2=O (stereo not given) -18.3%
C[C@@H]1CCC[C@H](C)N1CCCC(O)(c1ccccc1)c1ccccn1 (stereo not given in full) -13.7%
Cc1cccn2c3c(c(=O)nc12)C(c1ccc(F)cc1)CC(=O)N3 (stereo not given) -9.72%
